Source: the supplement of paper PMC10369915
Some of the results follow. Cut-off read from the data, not from the text of the source: active = 3.2 or more and inactive = the rest. Only a few entries rise above the background.

B1: G6PD_HUMAN_428_YA (peptide)
chain: DLTAGNRYKNVKLPD
B2: G6PD_HUMAN_507 (peptide)
chain: GFQYEGTYKWVNPHK
B3: GAB1_HUMAN_242 (peptide)
chain: FFQQQMIYDSPPSRA
B4: GAB1_HUMAN_285 (peptide)
chain: TEADGELYVFNTPSG
B5: GAB1_HUMAN_373 (peptide)
chain: ASDTDSSYCIPTAGM
B6: GAB1_HUMAN_447 (peptide)
chain: SEELDENYVPMNPNS
B7: GAB1_HUMAN_472 (peptide)
chain: EPIQEANYVPMTPGT
B8: GAB1_HUMAN_589 (peptide)
chain: SHDSEENYVPMNPNL
B9: GAB1_HUMAN_627 (peptide)
chain: KGDKQVEYLDLDLDS
B10: GAB1_HUMAN_659 (peptide)
chain: VADERVDYVVVDQQK
B11: GAB2_HUMAN_614 (peptide)
chain: KSTGSVDYLALDFQP
B12: GAB2_HUMAN_643 (peptide)
chain: TSDEKVDYVQVDKEK
B13: GAS6_HUMAN_683 (peptide)
chain: SAPVTAFYRGCMTLE
B14: GBB2_HUMAN_239 (peptide)
chain: VAFFPNGYAFTTGSD
B15: GBG12_HUMAN_42 (peptide)
chain: ASADLMSYCEEHARS
B16: GBRB2_HUMAN_441_YA (peptide)
chain: ADASSIQYRKAGLPR
B17: GCSAM_HUMAN_107_YA (peptide)
chain: GNSAEEAYENVPCKA
B18: GCSAM_HUMAN_148 (peptide)
chain: ARSPEDEYELLMPHR

These binders were tested against SHP2 C-SH2 domain E139D (assay: enrichment score (SH2-bound / input frequency) (ratio); bacterial display of known human phosphotyrosine sites (pTyr-Var adds point mutants) read by sequencing; higher = stronger binding; tyrosines were phosphorylated by kinases first). Conditions: peptide library: Human pTyr.
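Note: displayed peptides selected on beads carrying the immobilized SH2 domain, with library peptides lacking any tyrosine serving as negative controls.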

Binder	enrichment score
B1	inactive: 0.876
B2	inactive: 1.07
B3	inactive: 0.858
B4	inactive: 0.748
B5	inactive: 0.739
B6	inactive: 0.89
B7	inactive: 0.544
B8	inactive: 0.697
B9	inactive: 1.32
B10	inactive: 0.809
B11	inactive: 0.697
B12	inactive: 1.2
B13	inactive: 1.22
B14	inactive: 0.813
B15	inactive: 0.821
B16	inactive: 0.887
B17	inactive: 0.98
B18	inactive: 0.716

The binders below were run against SHP2 C-SH2 domain wild-type in the same assay as above. Conditions: peptide library: Human pTyr.

Binder	enrichment score
B1	inactive: 0.621
B2	inactive: 1.1
B3	inactive: 0.75
B4	inactive: 0.663
B5	inactive: 0.574
B6	inactive: 0.685
B7	inactive: 0.53
B8	inactive: 0.545
B9	inactive: 0.997
B10	inactive: 1.08
B11	inactive: 0.778
B12	inactive: 1.1
B13	inactive: 1.25
B14	inactive: 0.915
B15	inactive: 0.897
B16	inactive: 0.711
B17	inactive: 0.716
B18	inactive: 0.701

Each binder was assayed against SHP2 N-SH2 domain L43F in the same assay as above. Conditions: peptide library: Human pTyr.

Binder	enrichment score
B1	inactive: 0.646
B2	inactive: 0.964
B3	inactive: 0.511
B4	inactive: 0.768
B5	inactive: 0.816
B6	inactive: 0.829
B7	inactive: 0.531
B8	inactive: 0.543
B9	active: 3.85
B10	inactive: 0.722
B11	active: 7.51
B12	inactive: 1.22
B13	inactive: 1.27
B14	inactive: 0.745
B15	inactive: 0.633
B16	inactive: 0.867
B17	inactive: 0.873
B18	inactive: 0.763

Each binder was assayed against SHP2 N-SH2 domain T42A in the same assay as above. Conditions: peptide library: Human pTyr.

Binder	enrichment score
B1	inactive: 0.617
B2	inactive: 1.1
B3	inactive: 0.664
B4	inactive: 0.722
B5	inactive: 0.799
B6	inactive: 0.928
B7	inactive: 0.561
B8	inactive: 0.474
B9	active: 5.17
B10	inactive: 0.747
B11	active: 9.36
B12	inactive: 1.04
B13	inactive: 1.34
B14	inactive: 0.818
B15	inactive: 0.729
B16	inactive: 0.886
B17	inactive: 0.848
B18	inactive: 0.97

These binders were tested against SHP2 N-SH2 domain T52S in the same assay as above. Conditions: peptide library: Human pTyr.

Binder	enrichment score
B1	inactive: 0.771
B2	inactive: 1.1
B3	inactive: 0.63
B4	inactive: 0.752
B5	inactive: 0.74
B6	inactive: 0.819
B7	inactive: 0.55
B8	inactive: 0.655
B9	inactive: 2.31
B10	inactive: 0.603
B11	active: 4.42
B12	inactive: 1.19
B13	inactive: 1.45
B14	inactive: 0.826
B15	inactive: 0.791
B16	inactive: 1.02
B17	inactive: 0.869
B18	inactive: 0.791

The binders below were run against SHP2 N-SH2 domain wild-type in the same assay as above. Conditions: peptide library: Human pTyr.

Binder	enrichment score
B1	inactive: 0.79
B2	inactive: 1.18
B3	inactive: 0.794
B4	inactive: 0.778
B5	inactive: 0.723
B6	inactive: 0.971
B7	inactive: 0.642
B8	inactive: 0.607
B9	inactive: 1.42
B10	inactive: 0.626
B11	inactive: 1.24
B12	inactive: 1.4
B13	inactive: 1.97
B14	inactive: 0.721
B15	inactive: 0.925
B16	inactive: 0.926
B17	inactive: 1.05
B18	inactive: 0.617
